# Data: the supplement of paper PMC3334620
# The full ranking holds about 33,000 sequences; the median of “E-score (-0.5 to 0.5)” is about -0.035, and the highest 2% start at about 0.34. The list shows a part of the results.
# Target: T1, Mot3 (UniProt P54785)
# T1 sequence: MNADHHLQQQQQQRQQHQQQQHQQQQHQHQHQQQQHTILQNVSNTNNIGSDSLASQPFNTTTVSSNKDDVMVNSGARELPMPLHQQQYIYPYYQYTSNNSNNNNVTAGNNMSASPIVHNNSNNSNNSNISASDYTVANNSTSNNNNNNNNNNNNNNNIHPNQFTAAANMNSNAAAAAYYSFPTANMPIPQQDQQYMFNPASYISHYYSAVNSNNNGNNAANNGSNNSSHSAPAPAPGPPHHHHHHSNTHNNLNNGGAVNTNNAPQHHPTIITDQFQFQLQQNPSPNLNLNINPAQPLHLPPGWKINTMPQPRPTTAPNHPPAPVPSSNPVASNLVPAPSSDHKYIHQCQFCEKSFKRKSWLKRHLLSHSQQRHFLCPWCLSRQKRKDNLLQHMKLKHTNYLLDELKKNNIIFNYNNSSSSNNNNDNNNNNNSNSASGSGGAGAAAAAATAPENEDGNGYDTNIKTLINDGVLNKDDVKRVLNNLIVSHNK
# Test: PBM E-score (8-mer binding enrichment) (E-score (-0.5 to 0.5)); higher = stronger / more preferred TF binding; most listed sequences are background and not binding sites
# Settings: protein concentration: 200 nM; construct: GST-full length
# Outline: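 PURExpress in vitro transcription/translation supplied GST-tagged yeast transcription factors, either full-length or DNA-binding domain. Applied at about 100-200 nM to universal all-10-mer Agilent arrays double-stranded by primer extension, the bound protein was detected with fluorescent anti-GST. E-scores, modified Wilcoxon-Mann-Whitney statistics, were given by the Universal PBM Analysis Suite to ungapped eight-base words pooled with their reverse complements after masliner normalisation.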
row,Sequence,PBM E-score
1,AGAATTCC,-0.0646
2,GACCTTGA,-0.0632
3,AGACGTTA,0.107
4,AGGTAGGG,-0.0491
5,AAACATCA,0.294
6,ACGTTGAA,0.286
7,ATGCAACC,-0.00161
8,GCTACAAA,-4e-05
9,TGTCAGAA,0.155
10,AAGTTCGG,-0.0501
11,AAGAGATG,0.143
12,CTGGACCA,-0.125
13,CACTATTC,0.00889
14,CATGCACG,0.054
15,AAGGATGA,0.0473
16,GCACATAC,-0.0686
17,ACGTCTCA,0.0786
18,ACGGTTTC,-0.065
19,CCGCAAAG,-0.212
20,GCCCGATA,-0.181
21,CACGTGAG,0.0779
22,AGGAGCAA,-0.19
23,AGTATGCC,0.013
24,CATGGATC,-0.164
25,CTAGCTCA,-0.185

row,Sequence,PBM E-score
1,GATAGTTA,0.0132
2,AATTCGAA,-0.00868
3,CTGGTCGA,-0.114
4,CCGTCACG,-0.237
5,ACGTCAGC,0.0495
6,AGCCAATC,-0.213
7,GCTATGAC,-0.229
8,AGGGCCAA,-0.294
9,GAGTGGAA,-0.205
10,AATGCGAT,-0.0483
11,ACAGACGA,0.0084
12,AATCCAGG,0.0903
13,CGTAGTAA,0.18
14,AAGATATG,0.127
15,GAAGGCAA,0.489
16,CCAAAGGC,0.145
17,ACCTAGCA,0.0477
18,TCCGAGCA,0.104
19,TGGCCCAA,-0.311
20,CCACGGCG,-0.165
21,CTGTCGAC,0.123
22,GTTAATAA,0.151
23,GCAAGACA,0.0193
24,ATTCTAGA,-0.0354
25,ACGTCGTA,0.017

row,Sequence,PBM E-score
1,CCGGTGGA,-0.358
2,ACGAGTGG,-0.115
3,AGTGATTG,-0.11
4,ACAGTCGC,-0.068
5,ACGACACT,0.0691
6,AGCCCATC,-0.217
7,CCGACCAA,0.0242
8,GGGCAGCA,-0.128
9,AGGCTCGA,0.101
10,CCACTCTC,-0.237
11,ACGCGCTA,0.155
12,ATCTGCGC,-0.0863
13,GCATGCAA,0.116
14,TAAAACCA,0.0571
15,CTTCAGTA,0.0374
16,CTGCAGCA,-0.0262
17,CGCCGCCC,-0.209
18,CAGGCAAG,0.491
19,AAACACTG,0.196
20,AACGGTCT,-0.13
21,GGACGCCC,-0.128
22,CAGGTCAA,-0.0137
23,TGGTGAAA,0.0172
24,CGATCATA,-0.0872
25,GAGGAAAA,0.0527

row,Sequence,PBM E-score
1,AAGGTAGG,0.0935
2,CCAGGTCG,-0.0402
3,ATAGTGTG,-0.0895
4,GAACCAGC,-0.11
5,GCACCTGC,0.125
6,CTAACTTA,0.105
7,ACCTAAAT,0.084
8,CACGGATC,0.0149
9,GGGTCTAC,-0.19
10,CTGTTAGA,-0.081
11,GGATAGCA,-0.0171
12,CTTCCTAC,-0.0906
13,GGTCAGGA,-0.0849
14,AAAGCCAT,0.083
15,CGCATTCC,-0.29
16,ATCTCAGC,-0.189
17,TACCGACA,0.0238
18,AAATGGTC,-0.223
19,CGTGCCCA,0.355
20,TACGGAAA,0.0699
21,AACATCAG,0.232
22,CACGGCAA,0.108
23,CACAGGGC,0.075
24,ACTAAGCG,-0.0457
25,ATCGCAGA,-0.0933

row,Sequence,PBM E-score
1,GACTACAC,0.295
2,ATCGTTTG,-0.0574
3,AATGATAG,0.0197
4,GCCAAAGC,-0.211
5,ACCCTAAC,-0.0368
6,GTGAGTGA,-0.195
7,CAGATTCC,-0.124
8,CCGTTAGC,-0.267
9,CGCTAATC,-0.107
10,AAGCAACT,-0.0233
11,CTATCGCC,-0.129
12,AACCTCCC,-0.0647
13,CGGTGATA,-0.108
14,GGAATTTA,0.00634
15,AAAAAACG,0.0973
16,GTGGATCA,-0.161
17,AGGCGTTG,0.185
18,ACACCTCC,-0.084
19,ACCCTCGC,-0.253
20,CATGAGAG,-0.0464
21,ATACAATA,0.119
22,GCGGATGA,-0.199
23,CTGATGAC,-0.0806
24,ACCAATCT,-0.145
25,GCCGGACC,-0.0435

row,Sequence,PBM E-score
1,CTTGTATC,0.176
2,CACCTCAC,0.00629
3,ATCAGAAG,-0.0998
4,AGGCAGCG,0.175
5,CAAGGAAG,-0.00272
6,GAGATACC,-0.0433
7,GTAGGGCA,0.117
8,ATCCCTTG,-0.0314
9,TGAGTGAA,-0.143
10,GATGTCCA,-0.112
11,AAATCGTG,0.263
12,CTGACCTC,-0.3
13,AGTAGTTG,0.0131
14,TACCGCGA,-0.0474
15,GTGAAAGA,0.0325
16,AGGGTCTA,-0.153
17,GAATATGA,-0.0132
18,GCAGGCCA,0.169
19,CCCACGGC,-0.309
20,ATGCACGG,-0.116
21,CCCAAACG,-0.209
22,GAAAGAGC,-0.103
23,ACGGCGCA,-0.142
24,CGAAAGAC,-0.0599
25,GGTGTAAC,0.164

row,Sequence,PBM E-score
1,ATCCCACA,-0.23
2,ATTCAGCC,-0.0435
3,ACGGGGTC,-0.29
4,CTTTTACA,0.345
5,ACATGAGG,0.196
6,CATTAGTC,-0.252
7,ACCGTTGG,-0.129
8,AAGGCGGA,-0.0743
9,CGTCGACG,-0.3
10,GTAGTTGA,0.101
11,AAGGGAGG,-0.08
12,AGTGCATC,-0.111
13,ACAACCCA,0.145
14,GTCTACTA,0.0859
15,ACAACGGC,-0.0371
16,ATGATGAG,-0.104
17,CAGCACGC,-0.126
18,CGCACCCA,-0.22
19,ACGTTATA,0.254
20,CCAGGATA,-0.121
21,CATGCGGA,-0.11
22,ACACACAG,0.324
